The campaign covered roughly 310,000 compounds. About 14,000 (4.5%) showed an effect of 50% or more. Effects have a minus sign here. The list shows a part of the results.
molecular target: human ether-à-go-go-related gene (hERG) potassium channel (human, UniProt Q12809); experiment: primary screen, population patch clamp on CHO cells stably expressing hERG
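Further: peak tail current of the secondary pulse compared with the same well before compound.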

Chain of human ether-à-go-go-related gene (hERG) potassium channel (Q12809 whole entry, looked up): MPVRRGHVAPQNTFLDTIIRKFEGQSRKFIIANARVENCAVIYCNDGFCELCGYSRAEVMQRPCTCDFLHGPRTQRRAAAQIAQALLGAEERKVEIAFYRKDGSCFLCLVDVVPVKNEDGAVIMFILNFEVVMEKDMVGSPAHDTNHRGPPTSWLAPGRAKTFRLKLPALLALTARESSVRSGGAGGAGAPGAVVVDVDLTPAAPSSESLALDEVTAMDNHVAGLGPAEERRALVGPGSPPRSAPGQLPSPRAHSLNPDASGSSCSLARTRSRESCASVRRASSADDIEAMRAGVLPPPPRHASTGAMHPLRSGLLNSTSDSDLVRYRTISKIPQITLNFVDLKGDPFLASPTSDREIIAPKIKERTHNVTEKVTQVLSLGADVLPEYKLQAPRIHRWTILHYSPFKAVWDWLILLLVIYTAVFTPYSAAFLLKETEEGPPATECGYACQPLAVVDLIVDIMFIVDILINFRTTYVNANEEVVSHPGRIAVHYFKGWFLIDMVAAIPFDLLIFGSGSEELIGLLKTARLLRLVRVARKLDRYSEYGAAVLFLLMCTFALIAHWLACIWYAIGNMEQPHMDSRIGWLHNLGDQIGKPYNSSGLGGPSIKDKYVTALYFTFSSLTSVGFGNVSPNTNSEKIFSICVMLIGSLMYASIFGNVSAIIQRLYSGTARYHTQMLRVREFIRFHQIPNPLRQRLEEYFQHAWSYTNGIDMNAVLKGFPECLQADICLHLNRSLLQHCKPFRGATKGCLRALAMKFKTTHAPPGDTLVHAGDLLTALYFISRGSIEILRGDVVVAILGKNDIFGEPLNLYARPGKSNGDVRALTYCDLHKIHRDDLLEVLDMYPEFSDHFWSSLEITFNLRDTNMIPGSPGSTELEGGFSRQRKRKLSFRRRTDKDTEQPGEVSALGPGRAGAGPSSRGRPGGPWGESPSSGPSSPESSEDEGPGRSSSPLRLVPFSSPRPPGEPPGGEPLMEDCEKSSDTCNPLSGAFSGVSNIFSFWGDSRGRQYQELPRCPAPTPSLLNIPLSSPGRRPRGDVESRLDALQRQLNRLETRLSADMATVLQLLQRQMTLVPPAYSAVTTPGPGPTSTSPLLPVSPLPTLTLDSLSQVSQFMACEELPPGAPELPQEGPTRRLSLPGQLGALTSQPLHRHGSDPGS

Row | Structure (SMILES) | hERG current change (%, negative = inhibition) at 10uM [%]
1 | CC(C)(C)c1ccc(OCCCCCCN2CCNCC2)cc1 | -0.393
2 | COc1cccc(NC(=O)CN(C)C(=O)c2ccccc2OCc2c(C)noc2C)c1 | -0.739
3 | O=C(NNC(=S)Nc1ccc(F)c(Cl)c1)C1CC1 | 12.8
4 | CCOCCn1c(N2CCCC2)nc2c1c(=O)n(C)c(=O)n2C | 9.46
5 | C=CCN=C1NN=C(c2cc(C)n(CC=C)c2C)CS1 | 10.9
6 | Cc1cc(=O)oc2c(CN(CC(C)C)CC(C)C)c(O)ccc12 | -2.23
7 | O=S(=O)(c1ccc(Oc2ccc(Br)cc2F)nc1)N1CCCCC1 | -4.6
8 | CCOc1ccc(Br)cc1S(=O)(=O)N1CCC(C(=O)O)CC1 | 27.2
9 | CC1SC(c2ccc(F)cc2)NC1=O (stereo not drawn) | 18.8
10 | Cc1nc(N)sc1N=Nc1ccc(Br)cc1 | 7.09
11 | COc1ccc(-c2nnc(SCc3ccccc3)n2N)cc1 | -0.729
12 | O=[N+]([O-])c1ccc(/C=N/N2CCN(c3ccncc3S(=O)(=O)N3CCCCC3)CC2)cc1 | -7.15
13 | CC(C)OC(=O)c1ccc(COC(=O)c2cnccn2)cc1 | -3.48
14 | c1ccc2c(CSc3ncnc4nc[nH]c34)cccc2c1 | 10.6
15 | O=C(O)Cn1c(=O)c2c(c3ccccc31)CCC2 | 11.9
16 | COc1cccc(-n2nnc(S(=O)(=O)c3ccc(C)cc3)c2N)c1 | 10.5
17 | NC1=NC(c2cn[nH]c2-c2ccc(F)cc2)n2c(nc3ccccc32)N1 (stereo not drawn) | 26.7
18 | Cc1[nH]c(C)c2c(=O)n(Cc3ccc(Cl)cc3)ncc12 | 6.36
19 | O=c1[nH][nH]c(=S)n1C1CCCCC1 | 24.1
20 | Cc1c(N=Cc2ccc(Br)s2)cccc1[N+](=O)[O-] | -9.07
21 | O=C(Nc1cc(C(F)(F)F)ccc1N1CCCC1)c1cccnc1 | -16
22 | O=C(O)C(=O)O.Oc1ccccc1CN1CCC(C(O)(c2ccccc2)c2ccccc2)CC1 | -68.5

Row | Structure (SMILES) | hERG current change (%, negative = inhibition) at 10uM [%]
23 | COc1ccc(/C(O)=C2/C(=O)C(=O)N(CCCN3CCOCC3)C2c2ccc(C(C)C)cc2)cc1 (stereo not drawn) | 24.6
24 | CCCCOC(=O)Nc1ccc(C(=O)OCCC)cc1 | -12.9
25 | COc1ccccc1C(=O)NCCSCc1c(F)cccc1Cl | -15.4
26 | N#CC1(NC(=O)COC(=O)c2ccccc2[N+](=O)[O-])CCCCC1 | -5.4
27 | CCN(CC)CCCNC(=O)CCC(=O)Nc1ccc2nc(N3CCCCC3)cc(C)c2c1 | 3.75
28 | Cc1nnc(N/N=C/c2ccccc2O)n1N | -7.86
29 | O=S(=O)(Cc1ccccc1)Nc1cccc(F)c1 | 15.2
30 | O=C(CNc1ccccc1Cl)N/N=C1\CCCc2ccccc21 | 36.1
31 | CC(NC(=O)COC(=O)c1cccs1)c1ccccc1 (stereo not drawn) | 23
32 | C/C(O)=C(/N=O)C(=O)Nc1ccccc1 | 14.1
33 | Cc1ccc(-c2noc(CCC(=O)N3CCN(c4cccc(C(F)(F)F)c4)CC3)n2)cc1 | 5.07
34 | Cc1nc2ccccc2n1CC(=O)OCC(=O)NCc1ccccc1 | 12.8
35 | CCCn1c(SCC(=O)Nc2cccc(S(=O)(=O)N3CCCC3)c2)n[nH]c1=O | 15.4
36 | CC(C)(C)n1nc2c(c1NC(=O)Cc1ccc(F)cc1)CS(=O)(=O)C2 | 0.588
37 | S=C(NCCc1ccccc1)N1CCn2cccc2C1c1cccnc1 (stereo not drawn) | -42
38 | CCc1cc(CNC(=O)c2ccc(OC3CCN(C(C)=O)CC3)c(OC)c2)on1 | 7.52
39 | CC(=O)C(C)Oc1ccc2c3c(c(=O)oc2c1C)CCCC3 (stereo not drawn) | -8.37
40 | O=c1cc([O-])n(Cc2ccc(F)cc2)c(=O)[nH]1.[NH4+] | 21.7
41 | CC(C)(C)OC(=O)N/N=C\c1ccc(OC(=O)c2cccs2)cc1 | 4.54
42 | O=c1c2ccccc2nc(SCc2cn3ccsc3n2)n1-c1ccccc1 | -1.3
43 | Cc1onc(C(=O)N2CCN(c3ccccc3F)CC2)c1-c1ccccc1Cl | -7.76
44 | CCN(CC)CCCn1c2c(c(SCC(=O)Nc3ccc(F)c(F)c3)nc1=O)CCC2 | -55.1

Row | Structure (SMILES) | hERG current change (%, negative = inhibition) at 10uM [%]
45 | Cc1cccc[n+]1CC(=O)/C=C1\N(C)c2ccccc2C1(C)C.[Cl-] | 23.5
46 | CC(NC(=O)c1cc2cc(Cl)ccc2oc1=N)c1ccccc1 (stereo not drawn) | 7.55
47 | COc1ccc([C@@H]2[C@@H]3C(=O)N(C(C)(C)C)C(=O)[C@@H]3[C@]3(CC(C)C)C(=O)N(c4ccccc4)C(=O)N23)cc1 | 4.63
48 | O=C(CN1C(=O)C2C3CCC(C3)C2C1=O)OCC(=O)c1cccc([N+](=O)[O-])c1 (stereo not drawn) | 15.2
49 | Cc1cc(OCc2ccc(C(=O)n3cccn3)o2)ccc1Cl | -0.553
50 | Cc1cccc(-n2c(C)cc(/C=C3/C(=N)N4C(c5ccccc5)=CSC4=NC3=O)c2C)c1 | -1.18
51 | O=C(O)C(Cc1ccccc1)NS(=O)(=O)c1ccc(Cl)cc1 (stereo not drawn) | 18.1
52 | CC(=O)c1ccc(N2C(=O)[C@@H]3[C@H](C2=O)[C@H]2c4ccccc4C=NN2[C@@H]3C(C)=O)cc1 | 25.3
53 | COc1ccc(C(CCN2CCOCC2)c2c(O)cc(OC)cc2OC)cc1 (stereo not drawn) | -47.1
54 | CCOc1ccc(C(=O)NCC(=O)N2CCC3(CC2)NCCc2[nH]cnc23)cc1 | 13.5
55 | O=C(NNC(=O)c1ccco1)c1cccc(Br)c1 | 0.684
56 | O=C(/C=C/c1ccccc1Br)c1ccc2c(c1)OCO2 | 10.8
57 | CCOC(=O)c1sc(NC(=O)c2ccccc2)cc1C | 5.32
58 | COc1ccc(N(C(=O)Cn2nnc(-c3ccc(F)cc3)n2)C(C)C(=O)NC2CCCC2)cc1OC (stereo not drawn) | 4.8
59 | Cc1[nH][nH]c(=O)c1C(c1ccc(O)c([N+](=O)[O-])c1)c1c(C)[nH][nH]c1=O | 18.8
60 | CCC(=O)OCC(=O)[C@@]1(OC(=O)CC)[C@@H](C)C[C@H]2[C@@H]3CCC4=CC(=O)C=C[C@]4(C)[C@@]3(Cl)[C@@H](O)C[C@@]21C | 1.06
61 | Cn1cccc1Cc1nnc(SCC(=O)NCC2CCCO2)n1-c1ccc(F)cc1 (stereo not drawn) | -1.48
62 | C=CCN1c2ccccc2[C@]23C[C@@H](C(=O)OC)N(C(=O)OCC)C2=NC(C(=O)OC)=C(C(=O)OC)[C@H]13 | -13.9
63 | CCn1nc([N+](=O)[O-])c(C(C#N)c2nc3ccccc3n2C)c(Cl)c1=O (stereo not drawn) | 2.97
64 | Cc1cccc(NC(=O)CSCc2nc3c(nnn3Cc3ccc(F)cc3)c(=O)[nH]2)c1C | -0.573
65 | COc1ccc(Oc2nccc(-c3ccc(Cl)cc3)n2)cc1 | -3.38
66 | CC1(C)Cc2nc3sc4c(=O)n(CC(=O)NCc5ccco5)cnc4c3cc2CO1 | -10.7

Row | Structure (SMILES) | hERG current change (%, negative = inhibition) at 10uM [%]
67 | Cc1ccc(CC(=O)c2ccc(Cl)cc2)cc1 | 10.8
68 | CC1CCCCC1NC(=O)NC(=O)COC(=O)C1=NN(c2ccccc2)C(=O)CC1 (stereo not drawn) | 4.08
69 | Cn1c(=O)oc2cc(S(=O)(=O)N3CCC(C(=O)NCc4ccccc4)CC3)ccc21 | -6.54
70 | CCOC(=O)C(NC(C)=O)(Nc1ccc(S(=O)(=O)Nc2ccncn2)cc1)C(F)(F)F (stereo not drawn) | 6.66
71 | CC1CCC2(CC1)NC(=O)N(CC(=O)Nc1ccc3c(c1)OCCO3)C2=O (stereo not drawn) | 11.5
72 | CCc1cccc(CC)c1NC(=O)c1ccccc1 | 12
73 | Cc1ccc(N(C(=O)CNC(=O)c2ccco2)C(C(=O)NC2CCCC2)c2cccnc2)cc1C (stereo not drawn) | -0.354
74 | CC(NC(=O)Cn1ccsc1=N)C12CC3CC(CC(C3)C1)C2.Cl (stereo not drawn) | -34.4
75 | CCOc1ccccc1CN1C2CCC1CC(c1ccc(C)cc1)C2 (stereo not drawn) | -60.9
76 | Cc1cc2ccccc2n1CCNC(=O)c1ccc(Br)o1 | -7.12
77 | O=C(NCCc1cn2ccccc2n1)c1cc(COc2ccc3ncccc3c2)on1 | -65.7
78 | Cc1cccc(C)c1NC(=O)N1CC=C(n2c(=O)[nH]c3ccccc32)CC1 | 6.14
79 | O=C(CSC1=NNC(c2ccccn2)S1)Nc1cccc(Cl)c1 (stereo not drawn) | 12.6
80 | Cc1ccc(C)c(NC(=O)CN(C)C(=O)c2ccc(Cl)nc2)c1 | -7.48
81 | S=c1[nH]ccn1-c1c(Cl)cccc1Cl | 24.4
82 | CC(=O)c1ccc(N2CCN(S(=O)(=O)c3cn(C)c(C)n3)CC2)cc1 | 20.9
83 | COc1ccc(CNCCC2(Cc3ccccc3)CC(C)N(C)CC2C)cc1OC.Cl (stereo not drawn) | 25.3
84 | COCCN(CCOC)c1nc(-c2ccc(C)cc2)nc2ccccc12.Cl | -65.4
85 | CN(C)S(=O)(=O)c1cc(C(=O)OCCn2cnc3c2c(=O)n(C)c(=O)n3C)ccc1Cl | -39.7
86 | CCCCn1c(N)c(N(CC)C(=O)CSCc2c(C)noc2C)c(=O)[nH]c1=O | 7.15
87 | O=C(NCCCCNC(=O)c1ccccc1F)c1ccccc1F | 14.8
